About 200 (0.47%) of roughly 43,000 compounds were called active. Not shown: some 12% with an inconclusive outcome. The call rests on the fitted dose curve; in most records, active means well fitted cell-killing curve with a large enough effect; inconclusive means small, poorly fitted or top-dose-only effect, or effect the other way; inactive means flat fitted curve, though single readings scatter. This is one part of the list.

The source of these data is PubChem BioAssay AID1508642 (National Center for Advancing Translational Sciences (NCATS), 2021).
On the % scale 0 is the no-effect control and ±100 the full control effect.

The nature of the assay: Cell viability qHTS assay in S16 Pmp22-F2sN cells. Further: nearly all actives have a fitted effect of over 65% in size. Conditions: S16 Pmp22-F2sN Schwann cells viability, CellTiter-Glo, 24 h; series mostly up to 57.5 µM; activity change, negative = cytotoxicity: at the top concentration. Summed up:
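Viability was measured by CellTiter-Glo luminescence (15 min, room temperature). This followed 24 h at 37 °C of compound exposure (23 nL pin transfer) in S16 Pmp22-F2sN Schwann cells, 500-1,000 per well.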
In general terms: qHTS replaces the single test concentration by a dilution series.
On to `Cc1cc(C)nc(-n2nc(C)c3c2N(C)C(=O)CC3c2ccc(Cl)cc2)n1` (stereo not drawn), for which the “activity change, negative = cytotoxicity” value was inactive: -0.476%. As for `Cc1c(C(=O)Nc2cccc(Cl)c2)oc2ccc(S(=O)(=O)N3CCCCCC3)cc12`, the figure is inactive: -0.57%; as for `Cc1nnc(NC(=O)c2nc(SCc3ccccc3F)ncc2Cl)s1`, inactive: 0.21%; as for `COc1ccccc1NC(=O)CN1C(=O)C2(SCC(=O)N2c2ccc(F)c(F)c2)c2ccccc21` (stereo not drawn), inactive: 8.34%. As for `O=C(NCc1ccccc1)C(=O)Nc1ccc2nc3n(c(=O)c2c1)CCCCC3`, the figure is inactive: 11.6%; as for `CCc1cc(C(=O)NCc2ccccc2)no1`, inactive: 0.0206%; as for `CC(NC(=O)Cc1ccc(NC(=O)N2CCSc3ncccc32)cc1)c1ccccc1` (stereo not drawn), inactive: 1.64%. As for `Cc1cc(-c2ccc(S(=O)(=O)Nc3ccccc3F)s2)on1`, the figure is inactive: -0.628%; as for `CCc1ccc(NC(=O)CCCc2nnc3n(CC(C)C)c(=O)c4sccc4n23)cc1`, inactive: 3%; as for `Cc1nnc(NC(=O)CSc2nccn2Cc2ccc(F)cc2)s1`, inactive: -0.526%. As to `CC(=O)Nc1ccc(S(=O)(=O)NCCc2cn3ccsc3n2)cc1`, the “activity change, negative = cytotoxicity” value was inactive: -1.02%. For `CCC(=O)N1CCc2cc(OC)c(OC)cc2C1COc1ccccc1OC` (stereo not drawn), the “activity change, negative = cytotoxicity” value was inactive: -0.286%. For `Cc1cccc(OCc2ccc(-c3nc(C#N)c(NCc4cccnc4)o3)o2)c1`, the “activity change, negative = cytotoxicity” value is inactive: -28.8%. For `COC(=O)c1ccc(C2c3c(-c4ccccc4O)n[nH]c3C(=O)N2Cc2ccncc2)cc1` (stereo not drawn) the value was inactive: -26%; for `COc1ccc(-c2nc(CNS(=O)(=O)c3ccc(Br)cc3)cs2)cc1`, inactive: -6.63%; for `CC(C)c1nn2c(=O)cc(COC(=O)c3ccccc3NC(=O)COc3ccccc3)nc2s1`, inactive: -1.3%.

For `Cc1ccc(CNC(=O)C2CCN(S(=O)(=O)c3ccc(F)cc3)CC2)cc1`, the “activity change, negative = cytotoxicity” value was inactive: -5.12%.

As for `CC(=O)N1CCc2c(sc3c2c(=O)n(-c2ccc(C)cc2)c(=O)n3Cc2c(F)cccc2Cl)C1`, the “activity change, negative = cytotoxicity” value is inactive: 10.8%. In the case of `COc1ccccc1CNC(=O)c1cccn1-c1nnc(N2CCCCC2)s1`, the “activity change, negative = cytotoxicity” value was inactive: 2.7%. For the molecule `COc1ccc(CN2CCc3c(c(=O)n4ncc(C(=O)N5CCN(c6ccc(F)cc6)CC5)c4n3C)C2)cc1`, the “activity change, negative = cytotoxicity” value is inactive: -29.9%.

As for `COC(=O)c1c(NC(=O)Cc2coc3cc(C)ccc23)sc2c1CCCC2`, the “activity change, negative = cytotoxicity” value is inactive: -2.21%. For `CCc1cccc(NC(=O)CN2Cc3ccccc3C2=O)c1` the value was inactive: 4.57%.

Turning to `CCOc1ccc(C2CC(=O)Nc3cc4c(cc32)OCO4)cc1OC` (stereo not drawn), the “activity change, negative = cytotoxicity” value is inactive: -1.9%.

Regarding `COc1ccc(-c2cc(C)no2)cc1S(=O)(=O)NCc1cccs1`, the “activity change, negative = cytotoxicity” value was inactive: -19.9%. For `COc1cc(CNC(=O)C2CCCCN2S(=O)(=O)c2ccc(F)cc2)cc(OC)c1OC` (stereo not drawn) the value was inactive: 0.153%. For `CCOC(=O)c1c(S(=O)(=O)N2CCCC(C(=O)Nc3ccccn3)C2)c(C)n(C)c1C` (stereo not drawn) the value was inactive: -0.675%. For `Cc1nc(-c2cccc(NC(=O)Nc3ccccc3C(F)(F)F)c2)no1` the value was inactive: 1.38%; for `CCc1ccc(-n2c(=O)c3sc4ccccc4c3n(CC(=O)N3CCCC3)c2=O)cc1`, inactive: 9.02%. On to `O=C(CSc1nc2ccsc2c(=O)n1Cc1ccccc1Cl)NCc1ccc(F)cc1`, for which the “activity change, negative = cytotoxicity” value is inactive: 7.98%. As for `CCCOc1cccc(C2c3c(oc4ccccc4c3=O)C(=O)N2c2nncs2)c1` (stereo not drawn), the figure is inactive: 2.46%; as for `Cc1ccc(C)c(Cn2c(CCCNC(=O)C3CCCCC3)nc3ccccc32)c1`, inactive: -20.6%. For `Cc1nc(C)c(-c2ccc(SCC(=O)Nc3cccc(C)c3C)nn2)s1` the value was inactive: -6.64%; for `Cc1ccc(CNC(=O)CSc2nc3ccsc3c(=O)n2-c2ccc(Br)cc2)cc1`, inactive: 3.87%. As for `Cn1c(C(=O)NCCc2ccccc2)cc2sc(Cl)cc21`, the figure is inactive: -4.62%.

As for `CCc1ccc(C2C(C(=O)Nc3ccccc3OC)=C(C)Nc3nc(SCc4ccccc4)nn32)cc1` (stereo not drawn), the “activity change, negative = cytotoxicity” value is inactive: 1.91%. As for `CCOc1ccc(CNC(=O)CN2N=C(c3ccccc3)CCC2=O)cc1OC`, the “activity change, negative = cytotoxicity” value was inactive: 8.46%. Consider `Cc1ccc(-n2ncc(C(=O)NCCN3CCN(C)CC3)c2C2CCN(C(=O)OC(C)(C)C)CC2)cc1`, for which the “activity change, negative = cytotoxicity” value is inactive: 0.76%. For `CCOc1ccc(Nc2nc(C)c(NC(=O)c3cccc(F)c3)c(Nc3ccc(OCC)cc3)n2)cc1` the value was inactive: 0.231%; for `CCC1Oc2ccc(C)cc2N(CC(=O)N2CCN(c3ccccc3OC)CC2)C1=O` (stereo not drawn), inactive: 3.31%. As for `Cc1noc(C)c1S(=O)(=O)N(CC(=O)NCCc1ccc(Cl)cc1)c1ccc(C(C)C)cc1`, the “activity change, negative = cytotoxicity” value is inactive: 0.201%. As for `Cc1ccccc1C(=O)NNc1ncnc2c1cnn2-c1cccc(Cl)c1`, the figure is inactive: 23.4%; as for `Cc1ccc(Cn2c(CNC(=O)c3ccc(Cl)c([N+](=O)[O-])c3)nc3cccnc32)cc1`, inactive: -0.704%; as for `CCCc1ccc(NC(=O)C2CCCN(c3cnccn3)C2)cc1` (stereo not drawn), inactive: 0.0566%. As for `CCc1ccc(NC(=O)C2CCN(S(=O)(=O)c3cccc(-c4noc(C)n4)c3)CC2)cc1`, the figure is inactive: -6.19%; as for `Cc1ccc(Cl)cc1N1CCN(S(=O)(=O)c2ccc3c(c2)C(C(C)C)C(=O)N3)CC1` (stereo not drawn), inactive: -18.2%. As for `O=C(COCc1cc(-c2cccs2)on1)NCc1ccc(F)cc1`, the figure is inactive: 6.72%; as for `O=C(Nc1ccc(Cl)cc1)c1ccc(-n2cnnc2)cc1`, inactive: 2%.

For `Cc1ccc(-n2ncc3c(N4CCN(Cc5ccccc5)CC4)ncnc32)cc1Cl`, the “activity change, negative = cytotoxicity” value was inactive: 0.927%.
